# Screen size: about 310,000 compounds; about 2,200 (0.71%) showed an effect of 50% or more. Effects have a minus sign here. The list shows a part of the results.
# Target: human ether-à-go-go-related gene (hERG) potassium channel (human, UniProt Q12809)
# Test: primary screen, population patch clamp on CHO cells stably expressing hERG
# human ether-à-go-go-related gene (hERG) potassium channel, sequence (Q12809 whole entry, looked up): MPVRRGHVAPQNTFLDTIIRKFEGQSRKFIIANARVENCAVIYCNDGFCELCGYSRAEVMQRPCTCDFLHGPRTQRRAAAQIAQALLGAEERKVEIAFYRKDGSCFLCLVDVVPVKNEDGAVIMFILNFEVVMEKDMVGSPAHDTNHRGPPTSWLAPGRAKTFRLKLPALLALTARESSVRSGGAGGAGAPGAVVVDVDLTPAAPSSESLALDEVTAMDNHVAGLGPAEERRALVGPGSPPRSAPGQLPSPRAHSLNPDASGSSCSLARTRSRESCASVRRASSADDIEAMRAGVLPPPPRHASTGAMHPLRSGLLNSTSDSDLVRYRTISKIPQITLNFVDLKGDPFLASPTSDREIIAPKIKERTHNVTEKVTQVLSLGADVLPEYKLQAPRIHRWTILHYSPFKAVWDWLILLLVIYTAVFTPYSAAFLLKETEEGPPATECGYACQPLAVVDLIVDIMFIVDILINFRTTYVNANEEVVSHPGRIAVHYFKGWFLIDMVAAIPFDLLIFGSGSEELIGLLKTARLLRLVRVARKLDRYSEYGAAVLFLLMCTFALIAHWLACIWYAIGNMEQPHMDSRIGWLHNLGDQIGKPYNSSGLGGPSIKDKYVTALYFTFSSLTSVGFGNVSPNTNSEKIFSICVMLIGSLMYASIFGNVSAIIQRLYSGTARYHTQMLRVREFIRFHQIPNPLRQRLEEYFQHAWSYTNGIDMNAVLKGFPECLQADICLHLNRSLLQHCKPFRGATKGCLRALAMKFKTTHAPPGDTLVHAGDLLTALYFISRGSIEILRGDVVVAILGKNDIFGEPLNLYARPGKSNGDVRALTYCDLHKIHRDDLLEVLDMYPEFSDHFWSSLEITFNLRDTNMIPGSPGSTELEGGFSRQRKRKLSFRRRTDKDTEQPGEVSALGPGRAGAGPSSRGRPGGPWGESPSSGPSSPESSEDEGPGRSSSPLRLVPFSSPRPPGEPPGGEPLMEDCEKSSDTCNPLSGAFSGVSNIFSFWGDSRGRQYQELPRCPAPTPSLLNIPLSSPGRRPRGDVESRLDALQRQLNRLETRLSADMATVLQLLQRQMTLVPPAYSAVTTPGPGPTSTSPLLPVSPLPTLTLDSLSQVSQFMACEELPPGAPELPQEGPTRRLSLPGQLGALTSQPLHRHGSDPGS
row,Structure (SMILES),"hERG current change (%, negative = inhibition) at 1uM"
1,CCCOc1ccc(S(=O)(=O)NNC(=O)c2cc3ccccc3o2)cc1,12%
2,Cc1ccc2nc(NCCc3ccc(Cl)cc3)c3nncn3c2c1,9.2%
3,CC(C)c1nc2ccc(Br)cn2c1NC1CCCC1,13.7%
4,O=C(NC1CCCCC1)c1noc2c1CCCCC2,-3.07%
5,CCNS(=O)(=O)c1ccc(CCC(=O)NCc2ccncc2)cc1,7.13%
6,Cc1ccc(S(=O)(=O)N2CC(=O)NC(=O)C2)cc1,7.99%
7,O=C(COc1ccc(/C=N/NS(=O)(=O)c2ccccc2)cc1)Nc1ccc(F)cc1,-6.19%
8,CCc1ccc(C(=O)N/N=C(\C)c2ccncc2)s1,2.94%
9,COc1ccccc1NC(=O)CN1C(=O)CSC(C)C1=O (stereo not drawn),21%
10,CCC(=O)N1CCN(c2ccc(Cl)cc2NC(=O)c2ccc3c(c2)OCCO3)CC1,-19.3%
11,CN(Cc1ccccc1Cl)C(=O)c1cc2ccccc2o1,16.4%
12,CCOC(=O)/C=C1\SCC(=O)N1CC(=O)Nc1ccc2c(c1)CCC2,10.7%
13,CN(c1ccccc1)S(=O)(=O)c1cccc(C(=O)NCc2ccccc2CN2CCCC2)c1,-33.8%
14,O=c1[nH]c2ccc(Cl)cc2c(-c2ccccc2)c1N1CCOCC1,7.57%
15,O=c1[nH]cc(COCC(F)(F)C(F)(F)C(F)(F)F)c(=O)[nH]1,10.7%
16,CCNC(=O)NC(=O)CSc1ccc(S(=O)(=O)N(C)C2CCCCC2)cn1,-12.5%
17,CN(C)S(=O)(=O)c1ccc(C(=O)Nc2ccc3ncccc3c2)cc1,21%
18,c1ccc(CCc2nn3c(-c4ccncc4)nnc3s2)cc1,-9.59%
19,Cc1ccc(C(=O)C2=C(O)C(=O)N(Cc3ccco3)C2c2cccc(Cl)c2)o1 (stereo not drawn),15%
20,Cn1cccc1/C=N/NC(=O)Cc1ccccc1,12.4%
21,O=C(COC(=O)/C=C/c1ccc(OC(F)F)cc1)NC1CCCC1,11.8%
22,Nc1cc(=O)[nH]c(SCC(=O)NC2CCCc3ccccc32)n1 (stereo not drawn),11.8%
23,CC(O)CNCCNCc1c(OCc2ccccc2)ccc2ccccc12.Cl (stereo not drawn),-3.64%

row,Structure (SMILES),"hERG current change (%, negative = inhibition) at 1uM"
1,Cc1nc(SCC(=O)Nc2c(C)n(C)n(-c3ccccc3)c2=O)[nH]c(=O)c1Cc1ccccc1,11.5%
2,COc1ccccc1C(CNC(=O)c1ccc(NS(=O)(=O)c2ccc3c(c2)OCCO3)cc1)N(C)C (stereo not drawn),-2.03%
3,C/C=C(\C)c1nnc(NC(=O)c2ccco2)s1,5.16%
4,Cc1nnc(SCC(=O)Nc2cccc(S(N)(=O)=O)c2)n1-c1ccccc1,12%
5,O=C(O)c1cc(-c2ccc(/C=N/N3C(=O)C4C5C=CC(CC5)C4C3=O)o2)ccc1Cl (stereo not drawn),6.23%
6,N#CC1(NC(=O)CSc2nc3ncc(Cl)cc3[nH]2)CCCCC1,15.1%
7,O=C(c1ccc2c(c1)OCO2)N1CCN(c2ccc(Cl)cc2)CC1,-0.904%
8,C=CCN=C1SC(C)(C)C(=O)N1S(=O)(=O)c1ccc(C)cc1,7.75%
9,O=C(/C=C/c1ccc(Cl)cc1)N1CCN(c2c(Cl)cccc2[N+](=O)[O-])CC1,12.1%
10,O=C(NCCN1CCc2ccccc2C1)Nc1ccc([N+](=O)[O-])cc1,-26.4%
11,COc1ccc(N2C(=O)c3ccccc3NC2c2ccc(OC)c(CN3CCOCC3)c2)cc1 (stereo not drawn),1.94%
12,COc1cccc(NC(=O)c2ccccc2-c2ccccc2)c1,11.6%
13,CC(C)OCCCNC(=O)CN1C(=O)c2cccc3cccc1c23,9.4%
14,COC(=O)c1ccccc1NC(=O)C1CCN(C(=O)Cc2ccccc2)CC1,-11.2%
15,COc1ccc(NC(=O)c2ccccn2)cc1OC,8.05%
16,COc1ccc(Cl)cc1NC(=O)NN1CCN(C)CC1,-7.68%
17,CC1=C/C(=N\NC(=S)NCCc2ccccc2)CC(C)(C)C1,12.3%
18,CCCn1c(=O)c2ccccc2n2c(Sc3nnnn3-c3ccccc3)nnc12,-5.71%
19,CC(C)(C)NC(=O)Cn1c(SCC(=O)NC2CCCC2)nc2ccccc21,4.2%
20,Brc1ccccc1-c1nnc(CSc2nnc3sc4ccccc4n23)o1,-3.6%
21,Cc1oc(-c2cc(F)ccc2F)nc1CN(C)Cc1ccc2nccnc2c1,5.06%
22,CC(=O)Nc1ccccc1C(=O)OCc1ccc(C(=O)c2ccccc2)cc1,4.46%
23,O=C(Nc1cc2c3c(c1)CC(=O)N3CCC2)c1ccccc1C(F)(F)F,-0.0117%

row,Structure (SMILES),"hERG current change (%, negative = inhibition) at 1uM"
1,COc1cc(OC)cc(C(=O)Nc2ccc(-n3cnnn3)c(C)c2)c1,-0.326%
2,O=[N+]([O-])c1cccc(CN2CC=C(c3ccc(F)cc3)CC2)c1,13.3%
3,O=[N+]([O-])c1ccc2nc(-c3ccc(Cl)cc3)[nH]c2c1,7.59%
4,COc1ccc(OC)c(S(=O)(=O)N2CCC(C(=O)NC3CC3)CC2)c1,8.35%
5,O=C(CCn1c(=S)[nH]c2ccccc2c1=O)NCCCN1CCCC1=O,-18.9%
6,COc1ccccc1N1CCN(C2CCCN(C(=O)c3snnc3C)C2)CC1 (stereo not drawn),11.4%
7,CN1CCC(=O)N([C@H](CSc2ccccc2)Cc2ccccc2)CC1,-21.6%
8,COC(=O)c1ccc(C2CC(=O)NC3=C2C(=O)CCC3)cc1 (stereo not drawn),2.4%
9,Cc1nonc1NC(=O)CSc1nnc(-c2ccoc2C)n1C,9.71%
10,COc1cccc(NC(=O)CN(C)C(=O)c2ccccc2OCC(=O)Nc2cccc(C(F)(F)F)c2)c1,3.79%
11,COc1ccccc1C(=O)Nc1ccncc1,11.4%
12,COC(=O)C1=CO[C@@H](C)[C@H]2CN3CC[C@]4(C(=O)Nc5ccccc54)[C@@H]3C[C@H]12,16.5%
13,CCN(CCNC(=O)c1cccc(N2CCCC2=O)c1)c1ccccc1,-5.98%
14,C/C=C1\COC(C(=O)NCCN2CCCC2)(C(F)(F)F)C=C1C=C1CCCCC1 (stereo not drawn),12%
15,CC1(C)CC(=O)C2=C(C1)NC(=O)NC2c1ccc([N+](=O)[O-])cc1 (stereo not drawn),12.8%
16,CCOc1ccc(C(=O)NCC(=O)OCCCOC(=O)CNC(=O)c2ccc(OCC)cc2)cc1,1.84%
17,CCN(C(=O)c1cnc2scc(C)n2c1=O)c1ccccc1C,7.95%
18,Cn1c(N)c(C(=O)CSc2ncn[nH]2)c(=O)n(C)c1=O,17.1%
19,COc1ccc(/C=C(\NC(=O)c2ccc(OC)cc2)C(=O)Nc2ccc(C(=O)O)cc2)cc1,11%
20,COc1ccc(OC)c(NC(=O)Cn2cccc2)c1,-4.61%
21,CCCn1cc(SCC(=O)NCc2ccco2)c2ccccc21,-4.79%
22,CCOC(=O)Cc1c(C)c2c(C)[nH]nc2oc1=O,-4.5%
23,CC1CCN(Cc2nnnn2CCCC(=O)N(C)C(C)c2ccccn2)CC1 (stereo not drawn),18.2%

row,Structure (SMILES),"hERG current change (%, negative = inhibition) at 1uM"
1,Cc1ccc(/C=C/C(=O)OCC(=O)NC(=O)NCc2ccccc2)cc1,16.4%
2,O=C(Nc1c(C(=O)N2CCOCC2)oc2ccccc12)c1cccc([N+](=O)[O-])c1,11.4%
3,Cn1c(=O)[nH]c(=O)c2c1nc(N1CCCC1)n2CCO,13.2%
4,CCCCOC(=O)c1cc(=O)[nH]c2ccccc12,-6.46%
5,Cc1cc(SCC(=O)[O-])nc2ccccc12,19%
6,C=CCn1c(SCc2c(C)noc2C)nc2sc3c(c2c1=O)CCC(C)C3 (stereo not drawn),7.39%
7,CCc1nc2ccccc2n(CC)c1=O,11.6%
8,CC(NC(=O)c1cc2c(=O)n3ccccc3nc2n(CC2CCCO2)c1=N)c1ccccc1 (stereo not drawn),-72.3%
9,O=C(CSc1nnnn1-c1cccc2c1CCCC2)NC1CCCC1,13.7%
10,COc1cc2c(C#N)c(N3CCCCC3)nc(N)c2c(N)n1,0.442%
11,CN(C)c1nc(N)c([N+](=O)[O-])c(N2CCCCCC2)n1,7.23%
12,CCCCn1c(N)c(N(CCOC)C(=O)CSc2nnc(-c3ccc(C(C)(C)C)cc3)n2N)c(=O)[nH]c1=O,2.18%
13,CCCn1c(SCC(=O)Nc2nonc2C)nnc1-c1ccoc1C,5.83%
14,OCc1cn(-c2ccc(Cl)cc2)nn1,14.3%
15,O=C(Nc1cccc(Cl)c1)c1ccccc1NC(=O)C1CCCCC1C(=O)O (stereo not drawn),15.1%
16,Cc1c(Nc2cc(=O)oc3ccccc23)c(=O)n(-c2ccccc2)n1C,3.85%
17,COc1ccc(NC(=O)c2c(-c3c(Cl)cccc3Cl)noc2C)c(OC)c1,9.37%
18,O=C(Nc1ncc(Cc2cc(Cl)ccc2Cl)s1)c1ccc([N+](=O)[O-])cc1,10.5%
19,CCCCCCn1cc(C(=O)O)c(=O)c2cc(F)c(N3CCCCC3)cc21,14%
20,O=C(CNC(=S)NC(=O)c1ccccc1Br)c1ccccc1,10.2%
21,O=C1CC(c2ccncc2)c2cc3c(cc2N1)OCO3 (stereo not drawn),19.6%

# — article PMC4336329 (PLoS ONE, 2015)
